Results as given in the supplement of paper PMC11417369.
± gives the standard deviation of the averaged measurements. This is one part of the list.

Tested on: PfAP2-LT AP2 domain (GST-tagged)
Experiment: gcPBM binding intensity (ln(normalized median fluorescence intensity)); higher = stronger DNA binding
Method in brief: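 DNA-binding domains from P. falciparum, fused to GST and produced in E. coli, were put on an Agilent 4 × 180k double-stranded probe array for 1 h in 1× PBS holding 1% milk, 0.2 mg/ml BSA, 0.5% salmon testes DNA and 0.03% Triton X-100. Probes were primer-extended, 36 bp long and drawn from intergenic genomic regions, with negative controls included. After Alexa488 anti-GST antibody detection and a 488 nm scan, binding intensity was set as the highest Masliner-normalised natural-log median intensity across replicate spots of either probe orientation.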

Sequence | gcPBM binding intensity (ln)
ACTTTAAACAAAAAAAGTACTCTTTAATGAATATAT [XGTACX_site7176] | 8.39 ± 0.43
TATATATATATATATATATATATATATATATGTTGT [TGCATGCA_negctrl_site24] | 10.24 ± 0.085
CAATTTCTCTTAATTTGTACATATATGTTATACAAA [XGTACX_site3231] | 8.65 ± 0.43
CAATATTTTATTTAAGCATGCTCTAGGGTGTAAAAG [TGCATGCA_site1001] | 8.59 ± 0.45
TATAAATATATTTATACACACATTAGTGTATACATG [CACACA_site7397] | 9.04 ± 0.45
TCGTGTTAAATTTTTACACACAAACTTGCAATAATT [CACACA_site3824] | 9.04 ± 0.3
AACTATAACTAAAAAAATCACATAAAATATTTTATT [TGCATGCA_negctrl_site363] | 8.44 ± 0.46
AGGTGAAAAATATATAATAATGTAACAAAAAAAAAT [XGTACX_negctrl_site394] | 8.9 ± 0.58
TGTTCTATTCTATTATTATTTACAAATTATAAATAA [GTGCAC_negctrl_site232] | 8.39 ± 0.38
ATATATTTATAATAGGTGCATATGTTTTATTTTTCC [GTGCAC_site9849] | 8.82 ± 0.42
TATATATATTAGTGTGCACACTTTTTATTTTTATCC [CACACA_site8506] | 9.44 ± 0.53
TGTAATAAATAGTACACACACACATATATATATATT [CACACA_site1388] | 9.76 ± 0.11
AGATATGTTTTTAATTGTACATAAATACACAAATAT [XGTACX_site5981] | 8.62 ± 0.4
AAAGAATTATATAAGGTGCACGAATGTTTCTTTAAT | 8.89 ± 0.38
ATATGTGTGTGTATTTGTACCCAATTTTTATATATA [XGTACX_site4948] | 9.47 ± 0.16
AAAAAAAAAAAAAAAAAAAAAATACATATATATATA [CACACA_negctrl_site290] | 9.05 ± 0.38
ATATTTTTTTTTGTTAGTACTCATATTTGTAGTTTT [XGTACX_site7280] | 9.02 ± 0.59
TTTTTAATTTCAATGGTGCAGTAATAATATAATAGT | 8.48 ± 0.38
CATTTAAGACAAATTACACACGTATGCCAAATATAT [CACACA_site431] | 9.18 ± 0.33
AATATATATAATTATAGTACAGAAAATTAAAAAAGA [XGTACX_site2943] | 8.72 ± 0.61
TATATCTTATTTAACACACACAAAGAAAATAGAAAA [CACACA_site3732] | 9.02 ± 0.4
AACAATAAAAATAATTGTACAAGTTTAAAAAAAATT [XGTACX_site1987] | 8.81 ± 0.49

Sequence | gcPBM binding intensity (ln)
TCTTTAAATTTCTCAACACACAGTTATAAAAAATAA [CACACA_site2856] | 8.26 ± 0.47
TACAAGTATAAATAAGCACACATGTGGATATGTACA [CACACA_site4229] | 9.39 ± 0.3
ATGAATCCTTAATATGAACACACAAATATATTACAC [CACACA_site7943] | 8.96 ± 0.38
TTTTTTATTTATCCTATATATTACTAAATGAAGAAC [GTGCAC_negctrl_site333] | 8.34 ± 0.53
TTATTTCAAAGTAAATCAGTAAATATTTGTTTTCTT [CACACA_negctrl_site1572] | 8.34 ± 0.47
TCCTTATTTATATAATGTACTTTTTTTTTTCATTTT [XGTACX_site4275] | 8.69 ± 0.36
TAAAGTTAAAAATTATGTACATATATATTGTATATT [XGTACX_site5528] | 8.68 ± 0.4
GATAAAATAGGACCATATTCTTTAAAACGATAAAAT [XGTACX_negctrl_site405] | 8.73 ± 0.51
ATATATATATATTTATGTACATATACATAATGTATA [XGTACX_site6387] | 8.88 ± 0.35
TTATTTTATATATCACGTACATAGTTGTCTTCTTTT [XGTACX_site2906] | 8.97 ± 0.47
TAAGAAGTATTTTCCTGTACATATTTTATATGTATG [XGTACX_site4658] | 8.78 ± 0.36
AAAATATAAAATAATGCACACATAAACAAAAAATCA [CACACA_site8382] | 9.16 ± 0.48
TAGTAAATAACAAAAGGAAAAATTAATGAGGCAAAA [TGCATGCA_negctrl_site526] | 8.8 ± 0.47
CATCATAGCATTCCTCGTACAAATATAAACATATCA [XGTACX_site2711] | 8.8 ± 0.55
ATGTTTTGTAAAATGATTAAATATTAAGATTCAATA [CACACA_negctrl_site1743] | 8.39 ± 0.38
CTTAGAGTATTTAAATGTACACGTTTGTATATGTAT [XGTACX_site1767] | 8.81 ± 0.47
TAAAAAAAAATAAATACATGCATATAATACATTATA [TGCATGCA_site518] | 8.72 ± 0.4
TAATGAGGAAAAAGTGTGTTAAGATTTTATAATTTA [GTGCAC_negctrl_site608] | 8.56 ± 0.42
TGAACATGTTAAAATAAACACACAGCTAAGGTTTTT [CACACA_site7934] | 8.94 ± 0.4
ATATATATATTAACAATACACACGTGTATACCTTAT [CACACA_site2217] | 9.2 ± 0.4
TATCATATAAATACATGTACATATTTGGAAAATAAT [XGTACX_site5373] | 8.84 ± 0.38
TCAGTTAATGTATATGTACACACGGGGTGTATATAT [CACACA_site9103] | 9.28 ± 0.19

Sequence | gcPBM binding intensity (ln)
ATATATATATTAAGGGGTACGTAAAAAATTGGGAAG [XGTACX_site7322] | 8.95 ± 0.42
AAATTATATCCCCTTTGTACTTACAGATCTTTATAC [XGTACX_site8163] | 9.06 ± 0.44
ATAAATAAATACATATGTACATATATATATATATAT [XGTACX_site7145] | 9.64 ± 0.26
ATAAAATACAGATAAACACACATATAAACACCCATA [CACACA_site5381] | 9.56 ± 0.32
CTTTATTTTTTATACACACACAATATGTATAAATAT [CACACA_site7638] | 9.14 ± 0.3
TACATATTTTTTATGTGTACATATTTTTTATGTGTG [XGTACX_site444] | 8.95 ± 0.42
TTCTTTTTTCTTTATGGTACGTGTAATATATATCAA [XGTACX_site7960] | 8.82 ± 0.45
CCCAATAATTAAACAACACACATATATATATGTAAT [CACACA_site3084] | 9.36 ± 0.34
AAAATATAAATATATTGTACTGTTATATAATAAAAT [XGTACX_site2132] | 8.57 ± 0.45
AATGTGAAATATAAATGTACATAAATATATATATAT [XGTACX_site8710] | 9.25 ± 0.35
TAACTATCATGTATTACACACAATATTTATTATAGA [CACACA_site7301] | 8.76 ± 0.35
TTTATAAAATTATTTGCATGTAACAATTATAAATTG [TGCATGCA_site1026] | 8.4 ± 0.5
TTTTTTTTTCTTTCTCTTTAAATATTAATTAAAAAA [GTGCAC_negctrl_site90] | 7.83 ± 0.45
TATATTTATTTATATACACACATATTTATAAATATA [CACACA_site7047] | 8.71 ± 0.44
AGATTTAAATATCATACACACTTTATCTATAATACA [CACACA_site6581] | 8.64 ± 0.39
CAAAATTGACATGACGCACACAAGTGTAGATATTTT [CACACA_site1250] | 9.27 ± 0.42
TAGTTGTTTATAACACGTTGACAGAAATGTTATGTA [GTGCAC_negctrl_site624] | 8.64 ± 0.35
GTACAAAAATAAATTGCACACATTTTAATAAAAAAA [CACACA_site2130] | 8.84 ± 0.47
TCTCTCTTATAAAATACACACGAACAATCATATTAT [CACACA_site8065] | 8.73 ± 0.38
ATTTTTTTTTTTAAATGTACATAATATATATATAAT [XGTACX_site2686] | 8.63 ± 0.37
TATTAAACTAAATGTAGTACATACACAAACGTAATC [XGTACX_site4905] | 8.85 ± 0.43
TATTCGTGCAATAATGGTACACTTATAAATTATTCA [XGTACX_site1430] | 8.55 ± 0.32

Sequence | gcPBM binding intensity (ln)
AAAAAAATTTGTATCACACACGTATTATAAAAAAAT [CACACA_site4182] | 8.93 ± 0.47
CGAACATTATAAATGTCATTTTTTCCAACTTGATCT [GTGCAC_negctrl_site501] | 8.58 ± 0.41
AAGCATTTCCATGGTGGTACTATACAAATAATAATT [XGTACX_site6193] | 8.7 ± 0.55
TATAAATAATGTTAAACACACATACCGATATATAAC [CACACA_site7306] | 9.03 ± 0.36
AGTGTATTTTTATGTTGTACATGTAATATTTTTGAT [XGTACX_site541] | 8.96 ± 0.3
TATATAATATATTAATGTACGTTATATGTATTCCTT [XGTACX_site6140] | 8.89 ± 0.52
TAATTCATCATATGCACACACAATACCAAAATGTGC [CACACA_site191] | 9.42 ± 0.28
TACAGATATTCATATAAACACACATACAAATTATGT [CACACA_site7929] | 9.02 ± 0.42
CTTTTTTTTTAAATATCACACACATATAATATATTC [CACACA_site9222] | 9.04 ± 0.45
AAACAGAATGCATATACACACATACAAAAAAGTGCA [CACACA_site6591] | 9.43 ± 0.47
TGTGTACCGATATTAAGTTTAACGTTATAAAAATAT [CACACA_negctrl_site1547] | 8.65 ± 0.55
TTTCTAAACCGGTACAGTACATATAAAAATAGAATA [XGTACX_site6662] | 8.77 ± 0.61
AAAGGACAAAAAAATGCATGCCGTTAAATTATGTAC [TGCATGCA_site512] | 9.05 ± 0.47
TATGTGGCACAAAAGGGTACATATAATTTATACAGG [XGTACX_site5499] | 8.88 ± 0.6
AATTATTGTATGCTATACGTTCCCCTCTAATTTATC [CACACA_negctrl_site1052] | 9.02 ± 0.45
TATTATTTTATGAATACACACATATACGAAAATATT [CACACA_site964] | 8.72 ± 0.34
ATTGGGTACAAATACACACACATATAAATATTAATA [CACACA_site7173] | 9.41 ± 0.45
TATTTTTATATAATGTGTACTTATACCTTATTTTTT [XGTACX_site1658] | 8.82 ± 0.46
TATATTTTTTTTGTGCGTACATACCATTTTAATAAT [XGTACX_site2751] | 8.97 ± 0.49
CACAAACAAAAACACACACACACACCCACAAAAATG [CACACA_site2429] | 10.2 ± 0.34
CTAAAAATCTTTTGTTGTACTTTTAGATAATCAGGA [XGTACX_site3968] | 8.24 ± 0.4
TACATATTTATATACACACACACCGTCCGTGTTAAA [CACACA_site7413] | 9.43 ± 0.28
